Screen size: about 1,900 compounds; about 40 (2%) showed an effect of 50% or more. The list shows a part of the results.
target: human SGLT1 (hSGLT1) (human, UniProt P13866); experiment: primary screen, percent of control activity; higher = less effect of the substance; set-up: single well; conditions: 50 µM
In short: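 Single-point screen at 50 µmol/L in CHO-hSGLT1 cells, with 160 µmol/L 1-NBD-glucose in glucose-free DMEM for 90 min at 37°C. Fluorescence from isopropanol extracts was calibrated, and CHO wild-type uptake was subtracted. Data are percent of uptake without compound.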

Sequence of human SGLT1 (hSGLT1) (P13866 whole entry, looked up): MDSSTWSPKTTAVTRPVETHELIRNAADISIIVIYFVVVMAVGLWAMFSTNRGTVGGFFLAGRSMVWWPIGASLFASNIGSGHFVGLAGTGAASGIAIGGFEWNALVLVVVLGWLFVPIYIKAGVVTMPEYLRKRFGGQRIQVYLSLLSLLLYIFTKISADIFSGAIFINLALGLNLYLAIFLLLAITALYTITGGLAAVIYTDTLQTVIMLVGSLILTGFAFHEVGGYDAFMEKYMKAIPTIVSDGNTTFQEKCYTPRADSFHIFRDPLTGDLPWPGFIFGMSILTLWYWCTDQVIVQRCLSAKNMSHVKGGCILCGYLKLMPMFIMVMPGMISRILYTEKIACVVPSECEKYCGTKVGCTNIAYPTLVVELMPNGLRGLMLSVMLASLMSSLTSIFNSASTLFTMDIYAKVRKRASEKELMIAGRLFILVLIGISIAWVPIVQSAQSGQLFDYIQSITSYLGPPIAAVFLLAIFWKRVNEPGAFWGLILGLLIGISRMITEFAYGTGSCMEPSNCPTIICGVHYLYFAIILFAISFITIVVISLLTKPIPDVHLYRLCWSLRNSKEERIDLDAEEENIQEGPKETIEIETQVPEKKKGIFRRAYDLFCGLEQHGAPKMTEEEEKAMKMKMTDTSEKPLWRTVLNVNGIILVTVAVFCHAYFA

SMILES | NORMALIZED SGLT1 ACTIVITY (%)
Cc1cc(C2CCCCC2)n(O)c(=O)c1.NCCO | 182
COc1cccc2c1cc([N+](=O)[O-])c1c(C(=O)O)cc3c(c12)OCO3 | 96
CCCCc1nc(Cl)c(CO)n1Cc1ccc(-c2ccccc2-c2nnn[nH]2)cc1 | 249
CCN(CC)CCNC(=O)c1cc(S(C)(=O)=O)ccc1OC.Cl | 106
CN(C)C(=N)NC(=N)N.Cl | 90
CS(=O)(=O)O.OC(CCN1CCCCC1)(c1ccccc1)c1ccccc1 | 101
CC1OC1P(=O)([O-])[O-].[Ca+2] (stereo not shown) | 120
COc1cc2c(cc1OC)[C@@H]1C(=O)c3ccc4oc(C(C)C)cc4c3O[C@@H]1CO2 | 218
CCN(CC)CCNC(=O)COc1ccc(OC)cc1.Cl | 120
C=C1C[C@]23C[C@@]1(O)CC[C@H]2[C@@]12C=C[C@H](O)[C@@](C)(C(=O)O1)[C@H]2[C@@H]3C(=O)O | 97
O=C(N[C@H](CO)[C@H](O)c1ccc([N+](=O)[O-])cc1)C(Cl)Cl | 159
C[C@@H]1CC2C3CCC4=CC(=O)C=C[C@]4(C)[C@@]3(F)[C@@H](O)C[C@]2(C)[C@@]1(O)C(=O)CO (stereo partly shown) | 153
CC(=O)O[C@@H]1C=C[C@@]2(C)C(C[C@@H](OC(C)=O)[C@@]3(C)C4=CC(=O)O[C@@H](c5ccoc5)[C@]4(C)CCC23)C1(C)C (stereo partly shown) | 103
CCn1cc(C(=O)O)c(=O)c2cc(F)c(N3CCNCC3)cc21 | 109
COc1ccc(-c2oc3c(CC=C(C)C)c(O[C@@H]4O[C@H](CO)[C@@H](O)[C@H](O)[C@H]4O)cc(O)c3c(=O)c2O[C@@H]2O[C@@H](C)[C@H](O)[C@@H](O)[C@H]2O)cc1 | 93
ClC1=C(Cl)C2(Cl)C3C(Cl)C=CC3C1(Cl)C2(Cl)Cl (stereo not shown) | 57
COc1ccc2cc([C@H](C)C(=O)O)ccc2c1 | 228
NCCCC(=O)O | 108
COc1cc2c(cc1OC)C1C(=O)c3c(O)cc4c(c3OC1CO2)C=CC(C)(C)O4 (stereo not shown) | 283
CC(=O)NC(Cc1ccccc1)C(=O)O (stereo not shown) | 125
CCC[C@H]1CC2=C(C[C@@H](CC)CC3=C1C(=O)OC3=O)C(=O)OC2=O | 118
NC(=O)c1cc([N+](=O)[O-])cc([N+](=O)[O-])c1 | 114

SMILES | NORMALIZED SGLT1 ACTIVITY (%)
CN[C@@H]1[C@@H](O)[C@@H](O[C@@H]2[C@@H](O)[C@H](O[C@H]3OC(CN)=CC[C@H]3N)[C@@H](N)C[C@H]2N)OC[C@]1(C)O.O=S(=O)(O)O | 102
CC1(O)CC2C(CC1O)C2(C)C (stereo not shown) | 92
Cn1cc[nH]c1=S | 99
CN[C@H](CC(=O)O)C(=O)O | 98
C=C(C)/C=C1/C=CC(=O)C(C)=C1 | 146
CC(CN(C)C)CN1c2ccccc2Sc2ccccc21.O=C(O)C(O)C(O)C(=O)O (stereo not shown) | 45
NC(N)=Nc1nc(CSCC/C(N)=N\S(N)(=O)=O)cs1 | 126
COc1cc(OC)c2c(=O)c(-c3ccccc3)coc2c1 | 336
CC(=O)c1ccc(O)c(CC=C(C)C)c1 | 125
CC1(C)C2CC(=O)[C@]3(C)C(CC[C@@]4(C)[C@H](c5ccoc5)OC(=O)[C@H]5O[C@]543)[C@@]2(C)C(=O)C[C@H]1O (stereo partly shown) | 85
CCC[C@@H]1C[C@@H](C(=O)N[C@@H](C2O[C@H](SC)[C@H](O)[C@@H](O)[C@H]2O)[C@H](C)Cl)N(C)C1.Cl (stereo partly shown) | 116
CN[C@@H]1C(OC2[C@H](O[C@H]3[C@H](O)[C@@H](O)[C@H](NC(=N)N)[C@@H](O)[C@@H]3NC(=N)N)OC(C)[C@]2(O)CO)OC(CO)C(O)C1O.O=S(=O)(O)O (stereo partly shown) | 93
C[C@H]1O[C@H](O[C@@H]2[C@@H](O[C@H]3CC[C@@]4(C)C(CC[C@]5(C)C4CC=C4[C@@H]6CC(C)(C)CC[C@]6(C(=O)O)CC[C@]45C)[C@]3(C)CO)OC[C@@H](O)[C@H]2O)[C@@H](O)[C@H](O)[C@@H]1O (stereo partly shown) | 128
COC(=O)/C(C)=C\CC12OC(C)(C)C3CC(C=C4C(=O)c5c(OC)c6c(c(CC=C(C)C)c5OC431)OC(C)(CCC=C(C)C)C=C6)C2=O (stereo not shown) | 154
C1CCC(C(CC2CCCCN2)C2CCCCC2)CC1.O=C(O)/C=C\C(=O)O (stereo not shown) | 1
CC[C@H](C)C(=O)O[C@H]1C[C@@H](C)C=C2C=C[C@H](C)[C@H](CC[C@@H]3C[C@@H](O)CC(=O)O3)[C@H]21 | 78
C=C1C([C@]2(C)C(CC(=O)OC)[C@@](C)(COC(C)=O)OC(=O)C[C@@H]2OC(C)=O)[C@@H](OC=O)[C@H](OC(=O)C(OC(C)=O)C(C)CC)[C@@]2(C)[C@H](c3ccoc3)CC(=O)C12O (stereo partly shown) | 121
COc1ccc2c(c1)OC/C(=C\c1ccc(OC)c(O)c1)C2=O | 140
CNC(=O)Oc1cccc2c1OC(C)(C)C2 | 104
C[C@](N)(Cc1ccc(O)c(O)c1)C(=O)O | 107
COc1cc(OC)c2c(OC)c(-c3ccc4c(c3)OCO4)c(=O)oc2c1 | 116

— article PMC6664820, “Novel natural and synthetic inhibitors of solute carriers SGLT1 and SGLT2” (Pharmacology Research & Perspectives, 2019)
